{
  "source": "the supplement of paper PMC9446081",
  "note": "In all, about 39,000 compounds went through this assay and about 220 (0.56%) showed activity. The list shows a part of the results.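 Also: static incubation at 37 °C against the wild-type strain, values averaged over two biological replicates.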",
  "data": [
    {"system": "Escherichia coli K-12 BW25113", "assay": "relative growth (OD600 normalised to plate interquartile mean) (fraction); higher = less growth inhibition, active = 0.2 or less", "settings": "50 µM; LB; incubation time: overnight (16-24 h)", "values": [
      {"smiles": "CC(=O)OC1CC(OC(C)=O)C2(C)C(CC(OC(C)=O)C3(C)C2CCC2(C)C(c4ccoc4)C(=O)C4OC423)C1(C)C", "note": "(stereo unspecified)", "relative growth": "inactive: 0.982"},
      {"smiles": "Nc1ncccc1CN1CC[C@]2(CC(=O)NC2=O)C1", "relative growth": "inactive: 0.979"},
      {"smiles": "CN(C)[C@@H](CN)c1cccc(C(F)(F)F)c1", "relative growth": "inactive: 0.897"},
      {"smiles": "C1CCN(C[C@H]2CO[C@]3(CNCCOC3)C2)C1", "relative growth": "inactive: 1.01"},
      {"smiles": "C[C@H](O)[C@]12[C@@H]3CC=C[C@H]1N2CC3", "note": "(stereo partly specified)", "relative growth": "inactive: 0.993"},
      {"smiles": "CC(C)c1cccc2c1OCC[C@H](N)[C@@H]2O", "relative growth": "inactive: 0.998"},
      {"smiles": "C=C(C)c1cc2cc(C(C)=O)c(O)cc2o1", "relative growth": "inactive: 0.934"},
      {"smiles": "N#CC(OC1OC(COC2OC(CO)C(O)C(O)C2O)C(O)C(O)C1O)c1ccccc1", "note": "(stereo unspecified)", "relative growth": "inactive: 1.05"},
      {"smiles": "C[C@@H]1CN([C@H](C)CO)C(=O)CCCn2cc(nn2)CO[C@@H]1CN(C)C(=O)Oc1ccc2ccccc2c1", "relative growth": "inactive: 1.02"},
      {"smiles": "NCCO.NCCO.O[AsH]O[AsH]O", "note": "(stereo unspecified)", "relative growth": "inactive: 1.04"},
      {"smiles": "CCCCCCCCCCCCCCCC[N+](C)(C)C.[Br-]", "relative growth": "active: 0.0522"},
      {"smiles": "O=c1cccc2n1CC1CNCC2C1", "note": "(stereo unspecified)", "relative growth": "inactive: 1.03"},
      {"smiles": "CC(=O)Oc1ccc(C=Cc2cc(OC(C)=O)cc(OC(C)=O)c2)cc1", "relative growth": "inactive: 0.832"},
      {"smiles": "CNC(=O)[C@H]1C[C@H]2CN(CC3CC3)C[C@H]1O2", "relative growth": "inactive: 0.987"},
      {"smiles": "NCC1(c2ccc(Cl)cc2)CC1", "relative growth": "inactive: 0.969"},
      {"smiles": "Cc1[nH]c2ccccc2c1CCN", "relative growth": "inactive: 0.971"},
      {"smiles": "CC12C=CC(=O)C=C1CCC1C2CCC2(C)C(=O)CCC12", "note": "(stereo unspecified)", "relative growth": "inactive: 1.01"},
      {"smiles": "Cn1cc([C@@]23C[C@]2(C)COC3=O)cn1", "relative growth": "inactive: 0.997"},
      {"smiles": "Fc1ccc(Oc2ccnc3cc(Cl)cc(Cl)c23)cc1", "relative growth": "inactive: 1.15"},
      {"smiles": "O=C1CCCC2C3CCCN4CCCC(CN12)C34", "note": "(stereo unspecified)", "relative growth": "inactive: 1.05"},
      {"smiles": "NCc1cc(=O)[nH]o1", "relative growth": "inactive: 0.984"},
      {"smiles": "CC(=O)NN1Cc2ccccc2C1=N", "relative growth": "inactive: 1"},
      {"smiles": "N[C@@H](c1ccccc1)[C@H](O)c1ccccc1", "relative growth": "inactive: 0.969"},
      {"smiles": "NCCc1cccs1", "relative growth": "inactive: 0.983"},
      {"smiles": "NC[C@@H](O)c1ccccc1", "relative growth": "inactive: 0.976"},
      {"smiles": "CC(C)C[C@@H]1NC[C@@H]2CCCN2C1=O", "relative growth": "inactive: 1.01"},
      {"smiles": "NC(=O)CN1CC(O)CC1=O", "note": "(stereo unspecified)", "relative growth": "inactive: 1.02"},
      {"smiles": "CN[C@@H]1[C@@H](O)[C@@H](O[C@@H]2[C@@H](O)[C@H](O[C@H]3O[C@H](CN)CC[C@H]3N)[C@@H](N)C[C@H]2N)OC[C@]1(C)O.CN[C@@H]1[C@@H](O)[C@@H](O[C@@H]2[C@@H](O)[C@H](O[C@H]3O[C@H]([C@@H](C)N)CC[C@H]3N)[C@@H](N)C[C@H]2N)OC[C@]1(C)O.CN[C@@H]1[C@@H](O)[C@@H](O[C@@H]2[C@@H](O)[C@H](O[C@H]3O[C@H]([C@@H](C)NC)CC[C@H]3N)[C@@H](N)C[C@H]2N)OC[C@]1(C)O", "relative growth": "inactive: 0.624"},
      {"smiles": "CC1=C[C@H]2[C@]3(O)[C@H](C=C(CO)C[C@]2(O)C1=O)[C@H]1C(C)(C)[C@@]1(O)[C@H](O)[C@@H]3C", "relative growth": "inactive: 1.02"},
      {"smiles": "O=C(O)C[C@H]1CC[C@@H]2NC[C@H](O)COC[C@H]2O1", "relative growth": "inactive: 0.998"},
      {"smiles": "CN1CCN(c2ccccc2CN)CC1", "relative growth": "inactive: 1.02"},
      {"smiles": "CC1OC(OC2C=C3CCC4C(CCC5(C)C(c6ccc(=O)oc6)CCC45O)C3(C)CC2)C(O)C(O)C1O", "note": "(stereo unspecified)", "relative growth": "inactive: 0.977"},
      {"smiles": "COC(C)(C)CCCC(C)CC=CC(C)=CC(=O)OC(C)C", "note": "(stereo unspecified)", "relative growth": "inactive: 0.816"},
      {"smiles": "C[C@H]1C[C@@H]2CNC[C@@H]2O1", "relative growth": "inactive: 0.993"},
      {"smiles": "CNC(=O)[C@H]1Cn2ccnc2C2(CCNCC2)O1", "relative growth": "inactive: 0.989"},
      {"smiles": "Cn1ccnc1CN1CCC[C@]2(CCNC2=O)C1", "relative growth": "inactive: 0.87"},
      {"smiles": "C1CCN2C(C3N4CCCCN34)N2C1", "note": "(stereo unspecified)", "relative growth": "inactive: 0.976"},
      {"smiles": "C/C=C(\\C)C(=O)O[C@H]1C[C@@H](OC(C)=O)[C@@]2(C(=O)OC)CO[C@H]3[C@@H](O)[C@@](C)([C@]45O[C@@]4(C)[C@H]4C[C@@H]5O[C@H]5OC=C[C@@]54O)[C@H]4[C@]1(CO[C@]4(O)C(=O)OC)[C@@H]32", "relative growth": "inactive: 1.01"},
      {"smiles": "C[C@@H](CN)CC(=O)O", "relative growth": "inactive: 1"},
      {"smiles": "CC(C)=CC1C(C(=O)OCc2cccc(Oc3ccccc3)c2)C1(C)C", "note": "(stereo unspecified)", "relative growth": "inactive: 0.897"},
      {"smiles": "NNCc1ccccc1", "relative growth": "inactive: 1"},
      {"smiles": "c1ccc2sc(C3(N4CCCCC4)CCCCC3)cc2c1", "relative growth": "inactive: 0.965"},
      {"smiles": "C[N+](C)(C)CC#CCN1CCCC1=O", "relative growth": "inactive: 0.988"},
      {"smiles": "Cc1cc(C2=NO[C@](c3cc(Cl)cc(Cl)c3)(C(F)(F)F)C2)ccc1C(=O)NCC(=O)NCC(F)(F)F", "relative growth": "inactive: 0.982"},
      {"smiles": "CC[C@@H](C)[C@H]1NC(=O)C(C(C)=O)=C1O", "relative growth": "inactive: 0.975"},
      {"smiles": "CC12CCC3C(CCC4CC(O)CCC43C)C1CCC2=O", "note": "(stereo unspecified)", "relative growth": "inactive: 1.02"},
      {"smiles": "Cn1ccnc1N1CCNCC1", "relative growth": "inactive: 0.986"},
      {"smiles": "CN(C)Cc1c[nH]c2ccccc12", "relative growth": "inactive: 0.976"},
      {"smiles": "C[C@H]1CN([C@@H](C)CO)C(=O)c2c(c3ccccc3n2C)-c2ccccc2CO[C@H]1CN(C)C(=O)Oc1ccccc1", "relative growth": "inactive: 1"},
      {"smiles": "COC(=O)C[C@H]1CC[C@H]2NC[C@H](O)COC[C@@H]2O1", "relative growth": "inactive: 0.992"},
      {"smiles": "Nc1ccncc1", "relative growth": "inactive: 1.13"},
      {"smiles": "c1ccc2sc(C3(N4CCCC4)CCCCC3)cc2c1", "relative growth": "inactive: 0.973"},
      {"smiles": "Cc1noc(C)c1CN1CCNCC1", "relative growth": "inactive: 1.01"},
      {"smiles": "C[C@@H]1CN([C@H](C)CO)C(=O)CCCn2cc(nn2)CO[C@H]1CN(C)C(=O)Oc1cccc2ccccc12", "relative growth": "inactive: 1"},
      {"smiles": "CN1CC(=O)N(c2cccnc2)C[C@]12CCNC2", "relative growth": "inactive: 0.998"},
      {"smiles": "Cc1cc([N+](=O)[O-])cnc1N1CCNCC1", "relative growth": "inactive: 0.95"},
      {"smiles": "COc1cc2c3cc1Oc1c(OC)c(OC)cc4c1[C@@H](Cc1cccc(c1)Oc1ccc(c(O)c1)C[C@@H]3N(C)CC2)N(C)CC4", "relative growth": "inactive: 0.978"},
      {"smiles": "NC1(c2ccc(F)cc2)CCC1", "relative growth": "inactive: 1.02"},
      {"smiles": "CC12CC(=O)C3C(CCC4=CC(=O)CCC43C)C1CCC2=O", "note": "(stereo unspecified)", "relative growth": "inactive: 1.05"},
      {"smiles": "CN(CCC[C@@H](O)c1cccnc1)[NH2+][O-]", "relative growth": "inactive: 1.02"},
      {"smiles": "COc1ccc(C(=O)N2CCCC2=O)cc1", "relative growth": "inactive: 1.12"}
    ]}
  ]
}
